This is one part of the list. Single values are uncertain, as repeats are few or missing.
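Further: cell number obtained by counting DAPI-stained nuclei in high-throughput microscope images with image analysis software, screen run in 1,536-well plates.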

In the experiment the test system is RPMI7951. In words: cell count relative to DMSO control; melanoma cells; higher = more viable cells. The note with it: library dose: low library concentration; 72 h.
In turn, `CN(NC(=O)CC(=O)NN(C)C(=S)c1ccccc1)C(=S)c1ccccc1` + O=c1cc(-c2cccc3c2Sc2ccccc2S3)oc(N2CCOCC2)c1 [KU55933] (first compound 0.006 µM, partner dose 1 µM) had a cell count of 120%.
For the compound `CC(C)(C)c1cnc(CSc2cnc(NC(=O)C3CCNCC3)s2)o1` + O=C1NC(=O)/C(=C/c2ccc(-c3ccc(F)cc3O)o2)S1 [AS252424] (first compound 0.01 µM, partner dose 1 µM), the cell count was found to be 103%.
Consider `CN(NC(=O)CC(=O)NN(C)C(=S)c1ccccc1)C(=S)c1ccccc1` + O=C(Nc1ccccc1)c1cc([N+](=O)[O-])ccc1Cl [GW9662] (first compound 0.006 µM, partner dose 2 µM), for which the cell count was determined as 94.3%.
`COc1cc2c(Oc3ccc4[nH]c(C)cc4c3F)ncnc2cc1OCCCN1CCCC1` [cediranib] + O=C(O)C(=O)Nc1sc2c(c1C(=O)O)CCNC2 [TCS401] (first compound 0.4 µM, partner dose 1.66667 µM) showed a cell count of 82.2%.
`CC(C)(C)c1cnc(CSc2cnc(NC(=O)C3CCNCC3)s2)o1` + O=c1cc(-c2cccc3c2Sc2ccccc2S3)oc(N2CCOCC2)c1 [KU55933] (first compound 0.01 µM, partner dose 1 µM) displayed a cell count of 90.3%.
As for `COc1cc2c(Oc3ccc4[nH]c(C)cc4c3F)ncnc2cc1OCCCN1CCCC1` [cediranib] + CCc1ccc(CCOc2ccc(CC3SC(=O)NC3=O)cc2)nc1 [pioglitazone] (first compound 0.4 µM, partner dose 2 µM), the figure is 104%.
The compound `CN(NC(=O)CC(=O)NN(C)C(=S)c1ccccc1)C(=S)c1ccccc1` + O=C(O)C(=O)Nc1sc2c(c1C(=O)O)CCNC2 [TCS401] (first compound 0.006 µM, partner dose 1.66667 µM) returned a cell count of 113%.
For `CN(NC(=O)CC(=O)NN(C)C(=S)c1ccccc1)C(=S)c1ccccc1` + Cn1cc(/C=C2\C(=O)Nc3cccnc32)c2ccccc21 [GW441756] (first compound 0.006 µM, partner dose 0.4 µM) the value was 91.9%; for `Cc1ccc(NC(=O)c2cccc(N(C)C)c2)cc1NC(=O)c1ccc(O)cc1` + CCc1ccc(CCOc2ccc(CC3SC(=O)NC3=O)cc2)nc1 [pioglitazone] (first compound 2 µM, partner dose 2 µM), 72.5%; for `COc1cc2c(Oc3ccc4[nH]c(C)cc4c3F)ncnc2cc1OCCCN1CCCC1` [cediranib] + N#Cc1c(O)c2c(-c3ccc(-c4ccccc4O)cc3)csc2[nH]c1=O [A769662] (first compound 0.4 µM, partner dose 2 µM), 102%.
Compound `CCc1ccc(CCOc2ccc(CC3SC(=O)NC3=O)cc2)nc1` (stereo not drawn) [pioglitazone] + Cc1cc([N+](=O)[O-])ccc1NS(=O)(=O)c1cc(Cl)ccc1Cl [FH535] (first compound 2 µM, partner dose 1 µM) showed a cell count of 100%.
As for `CCc1ccc(CCOc2ccc(CC3SC(=O)NC3=O)cc2)nc1` (stereo not drawn) [pioglitazone] + COC(=O)c1sccc1S(=O)(=O)Nc1ccc(Nc2ccccc2)cc1OC [GSK0660] (first compound 2 µM, partner dose 1 µM), the figure is 101%; as for `COc1cc2c(Oc3ccc4[nH]c(C)cc4c3F)ncnc2cc1OCCCN1CCCC1` [cediranib] + COc1ccc(COc2ccc(Cc3cnc(N)nc3N)cc2OC)cc1 [GW2580] (first compound 0.4 µM, partner dose 1 µM), 91.5%.
With `Cc1ccc(NC(=O)c2cccc(N(C)C)c2)cc1NC(=O)c1ccc(O)cc1` + COc1ccc2c(c1)CCC1C2CCC2(C)C(NCCCCCCN3C(=O)C=CC3=O)CCC12 [U73122] (first compound 2 µM, partner dose 0.4 µM), the cell count was 82.2%.
For `CN(NC(=O)CC(=O)NN(C)C(=S)c1ccccc1)C(=S)c1ccccc1` + CCc1ccc(CCOc2ccc(CC3SC(=O)NC3=O)cc2)nc1 [pioglitazone] (first compound 0.006 µM, partner dose 2 µM) the value was 108%; for `CN(NC(=O)CC(=O)NN(C)C(=S)c1ccccc1)C(=S)c1ccccc1` + Oc1nc(-c2ccc(C(F)(F)F)cc2)nc2c1CSCC2 [XAV939] (first compound 0.006 µM, partner dose 2 µM), 64.6%; for `CCc1ccc(CCOc2ccc(CC3SC(=O)NC3=O)cc2)nc1` (stereo not drawn) [pioglitazone] + CCN(CC)CCCCNc1ncc2cc(-c3cc(OC)cc(OC)c3)c(NC(=O)NC(C)(C)C)nc2n1 [PD173074] (first compound 2 µM, partner dose 0.1 µM), 121%.
As for `CN(NC(=O)CC(=O)NN(C)C(=S)c1ccccc1)C(=S)c1ccccc1` + Cc1cc([N+](=O)[O-])ccc1NS(=O)(=O)c1cc(Cl)ccc1Cl [FH535] (first compound 0.006 µM, partner dose 1 µM), the figure is 111%; as for `CC(C)(C)c1cnc(CSc2cnc(NC(=O)C3CCNCC3)s2)o1` + CCCCCCCCCCCC1=C(O)C(=O)C=C(O)C1=O [Embelin] (first compound 0.01 µM, partner dose 1.2 µM), 95.3%; as for `Cc1ccc(NC(=O)c2cccc(N(C)C)c2)cc1NC(=O)c1ccc(O)cc1` + O=C1NC(=O)/C(=C/c2ccc(-c3ccc(F)cc3O)o2)S1 [AS252424] (first compound 2 µM, partner dose 1 µM), 96%.
As for `CC(C)(C)c1cnc(CSc2cnc(NC(=O)C3CCNCC3)s2)o1` + CCN(CC)CCCCNc1ncc2cc(-c3cc(OC)cc(OC)c3)c(NC(=O)NC(C)(C)C)nc2n1 [PD173074] (first compound 0.01 µM, partner dose 0.1 µM), the figure is 95.4%.
The compound `Cc1ccc(NC(=O)c2cccc(N(C)C)c2)cc1NC(=O)c1ccc(O)cc1` + COc1ccc(-c2ccc3c(N4CCOCC4)nc(N4C[C@@H](C)O[C@@H](C)C4)nc3n2)cc1CO [KU0063794] (first compound 2 µM, partner dose 0.02 µM) returned a cell count of 104%.
For `Cc1ccc(NC(=O)c2cccc(N(C)C)c2)cc1NC(=O)c1ccc(O)cc1` + O=C(Nc1ccccc1)c1cc([N+](=O)[O-])ccc1Cl [GW9662] (first compound 2 µM, partner dose 2 µM) the value was 87.3%.
As for `CCc1ccc(CCOc2ccc(CC3SC(=O)NC3=O)cc2)nc1` (stereo not drawn) [pioglitazone] + COc1ccc(-c2ccc3c(N4CCOCC4)nc(N4C[C@@H](C)O[C@@H](C)C4)nc3n2)cc1CO [KU0063794] (first compound 2 µM, partner dose 0.02 µM), the figure is 95.8%; as for `COc1cc2c(Oc3ccc4[nH]c(C)cc4c3F)ncnc2cc1OCCCN1CCCC1` [cediranib] + COC(=O)c1sccc1S(=O)(=O)Nc1ccc(Nc2ccccc2)cc1OC [GSK0660] (first compound 0.4 µM, partner dose 1 µM), 94.2%.
Regarding `CN(NC(=O)CC(=O)NN(C)C(=S)c1ccccc1)C(=S)c1ccccc1` + COc1ccc(-c2ccc3c(N4CCOCC4)nc(N4C[C@@H](C)O[C@@H](C)C4)nc3n2)cc1CO [KU0063794] (first compound 0.006 µM, partner dose 0.02 µM), the cell count turned out to be 102%.
For `CCc1ccc(CCOc2ccc(CC3SC(=O)NC3=O)cc2)nc1` (stereo not drawn) [pioglitazone] + COc1ccc(COc2ccc(Cc3cnc(N)nc3N)cc2OC)cc1 [GW2580] (first compound 2 µM, partner dose 1 µM) the value was 88.6%; for `Cc1ccc(NC(=O)c2cccc(N(C)C)c2)cc1NC(=O)c1ccc(O)cc1` + CCCCCCCCCCCC1=C(O)C(=O)C=C(O)C1=O [Embelin] (first compound 2 µM, partner dose 1.2 µM), 93.7%; for `Cc1ccc(NC(=O)c2cccc(N(C)C)c2)cc1NC(=O)c1ccc(O)cc1` + CCN(CC)CCCCNc1ncc2cc(-c3cc(OC)cc(OC)c3)c(NC(=O)NC(C)(C)C)nc2n1 [PD173074] (first compound 2 µM, partner dose 0.1 µM), 76%.
As for `CCc1ccc(CCOc2ccc(CC3SC(=O)NC3=O)cc2)nc1` (stereo not drawn) [pioglitazone] + CCCCCCCCCCCC1=C(O)C(=O)C=C(O)C1=O [Embelin] (first compound 2 µM, partner dose 1.2 µM), the figure is 117%.
`COc1cc2c(Oc3ccc4[nH]c(C)cc4c3F)ncnc2cc1OCCCN1CCCC1` [cediranib] + CCCCCCCCCCCC1=C(O)C(=O)C=C(O)C1=O [Embelin] (first compound 0.4 µM, partner dose 1.2 µM) had a cell count of 112%.
For `CC(C)(C)c1cnc(CSc2cnc(NC(=O)C3CCNCC3)s2)o1` + Cc1cc([N+](=O)[O-])ccc1NS(=O)(=O)c1cc(Cl)ccc1Cl [FH535] (first compound 0.01 µM, partner dose 1 µM) the value was 113%; for `CC(C)(C)c1cnc(CSc2cnc(NC(=O)C3CCNCC3)s2)o1` + N#Cc1c(O)c2c(-c3ccc(-c4ccccc4O)cc3)csc2[nH]c1=O [A769662] (first compound 0.01 µM, partner dose 2 µM), 79%.
